# Assay results published in PubChem BioAssay (NCATS).
# The inconclusive results got no clear call from the source; some entries with a clear call stand among them for comparison. For some of these results: Potencies of inconclusive entries are left out as doubtful fits. Active and inactive are the calls of the source. Unless noted, calls follow the shape of the dose curve; as a rule, active = well fitted curve in the direction sought with a large enough effect; inconclusive = small, poorly fitted or top-dose-only effect, or another doubt; inactive = no such curve, though single readings can be large; an effect the other way counts as inactive or inconclusive.
# Experiments:
# [1] = AP1 Signaling Pathway (AID 357; active = well fitted curve in either direction with a large enough effect, not every such curve was filed as active; inconclusive = small, poorly fitted or top-dose-only effect, or another doubt;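 also: ME-180 reporter cells stimulated with EGF at its EC50 level; top concentration of the series differs between compounds; % is scaled to controls: 0 for no effect and ±100 for the full control effect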); details: ME-180 AP-1-bla reporter, EGF-induced, beta-lactamase ratio, 5 h; at 7.69 µM (top of the series) unless noted
# Method in brief: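 Titration-series screen for positive or negative modulators of EC50 EGF-induced signaling in ME-180 cells carrying an AP-1-driven beta-lactamase reporter. After 5 hours at 37 degrees Celsius, CCF4 460nm/530nm emission ratio gave %Activity; AC50 values derived.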
# [2] = NFAT Signaling Pathway (AID 444; active = well fitted curve in either direction with a large enough effect, not every such curve was filed as active; inconclusive = small, poorly fitted or top-dose-only effect, or another doubt;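 also: carbachol stimulus at about its EC50 of 1 µM final; % is scaled to controls: 0 for no effect and ±100 for the full control effect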); details: Jurkat NFAT-bla M1, carbachol, beta-lactamase ratio, 5 h; at 7.69 µM (top of the series) unless noted
# Method in brief: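 Jurkat cells with NFAT-driven β-lactamase reporter and co-expressed M1 receptor, stimulated with carbachol (final 1 uM, ~EC50), compound titration, 5 h at 37 °C. CCF4 loaded 1 h at RT; 460/530 nm ratio gave %activity and AC50.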
# [3] = target: 3',5'-cyclic-AMP phosphodiesterase 4B (Homo sapiens) (UniProt Q07343); experiment: qHTS Assay for Inhibitors of PDE-IV (AID 607; active = well fitted activation curve with a large enough effect in the main read-out, with a control signal flat, not every such curve was filed as active; inconclusive = small, poorly fitted or top-dose-only effect, or effect the other way, or a change in a side signal; also: potency is read from the fitted curve at half-maximal effect; as to activation (PDE inhibition): % of control where 0% means no effect); details: HEK293 ACTOne CNG channel cells, membrane potential fluorescence; activation (PDE inhibition): at 22.9 µM (top of the series)
# Chain of UniProt Q07343 (Q07343 whole entry, looked up): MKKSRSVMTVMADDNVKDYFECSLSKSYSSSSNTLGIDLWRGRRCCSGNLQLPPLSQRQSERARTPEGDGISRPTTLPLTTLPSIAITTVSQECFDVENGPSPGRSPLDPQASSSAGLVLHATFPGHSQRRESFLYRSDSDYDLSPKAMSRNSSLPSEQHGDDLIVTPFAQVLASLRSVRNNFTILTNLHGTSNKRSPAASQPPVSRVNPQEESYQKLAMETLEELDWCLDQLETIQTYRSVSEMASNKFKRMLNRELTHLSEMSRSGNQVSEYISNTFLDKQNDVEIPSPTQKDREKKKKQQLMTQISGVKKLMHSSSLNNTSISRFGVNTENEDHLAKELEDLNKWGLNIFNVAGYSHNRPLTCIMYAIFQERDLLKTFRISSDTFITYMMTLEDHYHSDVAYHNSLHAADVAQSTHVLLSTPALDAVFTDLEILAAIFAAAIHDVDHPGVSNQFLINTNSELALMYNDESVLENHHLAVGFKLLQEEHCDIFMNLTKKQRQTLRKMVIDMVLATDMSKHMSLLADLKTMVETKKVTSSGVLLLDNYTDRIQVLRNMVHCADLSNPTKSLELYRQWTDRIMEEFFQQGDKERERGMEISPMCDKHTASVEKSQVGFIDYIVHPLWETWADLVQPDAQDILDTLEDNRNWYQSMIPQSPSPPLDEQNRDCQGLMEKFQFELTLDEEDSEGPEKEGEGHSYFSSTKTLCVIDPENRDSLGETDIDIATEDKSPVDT
# Method in brief: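 Live HEK293 cells with a modified cyclic nucleotide-gated (CNG) channel report intracellular cAMP via membrane-potential dye fluorescence (ex 535/em 590 nm). Endogenous PDE-IV was targeted. Compounds were tested at up to 22.9 uM final; RO 20-1724 100 uM served as control.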
# [4] = target: Cytochrome P450 2C9 (Homo sapiens) (UniProt P11712); experiment: qHTS Assay for Inhibitors and Substrates of Cytochrome P450 2C9 (AID 883); also: potency is read from the fitted curve at half-maximal effect; nearly all actives have a fitted effect of over 60% in size
# Chain of UniProt P11712 (P11712 whole entry, looked up): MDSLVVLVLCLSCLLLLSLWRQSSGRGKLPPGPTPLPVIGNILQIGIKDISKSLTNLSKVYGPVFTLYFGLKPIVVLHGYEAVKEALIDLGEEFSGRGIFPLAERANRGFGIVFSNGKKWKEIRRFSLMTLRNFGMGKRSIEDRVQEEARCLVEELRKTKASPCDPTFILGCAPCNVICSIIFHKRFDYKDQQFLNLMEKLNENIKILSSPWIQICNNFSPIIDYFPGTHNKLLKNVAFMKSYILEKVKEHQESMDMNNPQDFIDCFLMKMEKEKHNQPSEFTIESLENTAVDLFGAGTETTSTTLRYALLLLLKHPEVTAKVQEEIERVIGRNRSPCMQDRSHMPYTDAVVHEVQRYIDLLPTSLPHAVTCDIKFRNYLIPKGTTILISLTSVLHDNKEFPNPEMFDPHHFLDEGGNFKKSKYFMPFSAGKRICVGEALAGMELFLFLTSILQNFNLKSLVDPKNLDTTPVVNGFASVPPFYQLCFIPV
# Method in brief: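 Human CYP2C9 (10nM) with Luciferin-H at 100uM (its KM) in 25mM KPO4; compound preincubated 10 min at 37C, then NADPH regeneration for 60 min at 37C. Luciferin read by luminescence after detection reagent; normalized to 57uM sulphaphenazole as full inhibition.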
# [5] = qHTS Assay for Lipid Storage Modulators (AID 1519; calls by dose curve; also: potency is read from the fitted curve at half-maximal effect; as to activity change, negative = inhibition: % is scaled to controls: 0 for no effect and ±100 for the full control effect); details: Drosophila S3 cells, BODIPY lipid droplet/cell ratio, laser cytometry, cells loaded with oleic acid; activity change, negative = inhibition: at 57.5 µM (top of the series) unless noted
# Method in brief: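 Cells seeded at 5,000 per well were treated with compounds over a concentration series and loaded with oleic acid (400 uM, as added). Lipid droplet fluorescence (488 nm excitation, 500-530 nm channel) was read by laser-scanning cytometry and normalized to 20 uM Triacsin C.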
# [6] = target: Ubiquitin carboxyl-terminal hydrolase 1 (Homo sapiens) (UniProt O94782); experiment: Inhibitors of USP1/UAF1: Pilot qHTS (AID 504865); also: potency is read from the fitted curve at half-maximal effect;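 also: rhodamine fluorescence freed from ubiquitin-rhodamine substrate followed over time; nearly all actives have a fitted effect of over 35% in size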
# Chain of UniProt O94782 (O94782 whole entry, looked up): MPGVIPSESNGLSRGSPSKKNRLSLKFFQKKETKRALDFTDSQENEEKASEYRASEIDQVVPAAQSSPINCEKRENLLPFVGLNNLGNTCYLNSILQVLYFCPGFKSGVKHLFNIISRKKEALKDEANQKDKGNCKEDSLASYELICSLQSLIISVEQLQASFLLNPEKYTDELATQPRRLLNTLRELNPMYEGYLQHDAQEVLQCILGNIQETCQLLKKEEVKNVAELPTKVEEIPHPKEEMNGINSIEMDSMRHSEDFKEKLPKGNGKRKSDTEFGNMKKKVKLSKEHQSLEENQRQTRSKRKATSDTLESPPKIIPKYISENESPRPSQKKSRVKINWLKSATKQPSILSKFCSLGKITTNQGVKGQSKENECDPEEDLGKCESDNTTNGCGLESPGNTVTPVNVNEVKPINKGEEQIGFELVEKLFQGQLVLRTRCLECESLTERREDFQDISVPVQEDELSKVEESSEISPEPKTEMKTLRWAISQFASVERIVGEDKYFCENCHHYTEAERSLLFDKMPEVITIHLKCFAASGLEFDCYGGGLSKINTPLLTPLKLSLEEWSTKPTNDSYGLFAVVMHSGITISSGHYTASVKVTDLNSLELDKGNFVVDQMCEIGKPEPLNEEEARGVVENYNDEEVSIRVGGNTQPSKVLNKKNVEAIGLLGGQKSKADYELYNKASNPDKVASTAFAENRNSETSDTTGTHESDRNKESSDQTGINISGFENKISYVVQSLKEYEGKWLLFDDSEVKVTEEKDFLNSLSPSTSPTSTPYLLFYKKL
# Method in brief: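 1nM USP1/UAF1 + cpd, 15 min RT; start w/ Ub-Rho 150nM final; kinetic FL 480/540 nm, 6 reads q60 s. Buffer 50mM HEPES pH 7.8, 0.5mM EDTA, 1mM TCEP, 0.01% Tween-20, 0.1 mg/ml BSA.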
# [7] = Primary qHTS for small molecule stabilizers of the endoplasmic reticulum resident proteome: Secreted ER Calcium Modulated Protein (SERCaMP) assay (AID 1508630); details: SH-SY5Y GLuc-SERCaMP (Gaussia luciferase released on ER calcium loss) secretion, thapsigargin, luminescence; activity change, negative = inhibition: at 38.4 µM (top of the series) unless noted; also: potency is read from the fitted curve at half-maximal effect
# Method in brief: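 GLuc-SERCaMP-expressing SH-SY5Y cells, pretreated 16 h with compound, are challenged with thapsigargin to empty ER calcium stores; after 4 h, coelenterazine is added directly to the medium and luminescence is imaged.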
# [8] = target: Cytochrome P450 1A2 (Homo sapiens) (UniProt P05177); experiment: p450-cyp1a2 (AID 410; calls by dose curve; also: potency is read from the fitted curve at half-maximal effect)
# Chain of UniProt P05177 (P05177 whole entry, looked up): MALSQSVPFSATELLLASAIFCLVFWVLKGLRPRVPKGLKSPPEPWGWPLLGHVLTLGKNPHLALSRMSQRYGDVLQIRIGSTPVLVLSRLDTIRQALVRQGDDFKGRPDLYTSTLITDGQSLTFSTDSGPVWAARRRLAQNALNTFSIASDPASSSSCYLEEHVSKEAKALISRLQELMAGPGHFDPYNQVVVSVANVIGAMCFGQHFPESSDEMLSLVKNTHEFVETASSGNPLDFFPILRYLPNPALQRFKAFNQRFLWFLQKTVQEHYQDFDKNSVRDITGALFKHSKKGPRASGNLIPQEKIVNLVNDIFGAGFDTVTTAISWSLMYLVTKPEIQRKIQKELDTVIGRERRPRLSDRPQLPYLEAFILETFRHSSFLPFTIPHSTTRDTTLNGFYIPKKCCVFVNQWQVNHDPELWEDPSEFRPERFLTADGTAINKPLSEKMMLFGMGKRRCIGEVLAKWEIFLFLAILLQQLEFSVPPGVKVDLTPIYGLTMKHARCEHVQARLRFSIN
# Method in brief: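 Luminescent readout of luciferin formed from Luciferin-ME by human CYP1A2; data normalized against complete inhibition by 57 uM furafylline. Enzyme 20nM, substrate 100uM at Km, 100mM KPO4 buffer, 60 min reaction at room temperature.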
# [9] = Stat Signaling Pathway (AID 446; active = well fitted curve in either direction with a large enough effect, not every such curve was filed as active; inconclusive = small, poorly fitted or top-dose-only effect, or another doubt;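 also: ME-180 cervical cancer cells given 40 pM IL-6 alongside compound; SIE-controlled beta-lactamase reporter measured as 460/530 nm FRET emission ratio; top concentration of the series differs between compounds; % is scaled to controls: 0 for no effect and ±100 for the full control effect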); details: ME-180 SIE beta-lactamase reporter, IL-6 stimulated, 5 h; at 7.69 µM (top of the series) unless noted
# Method in brief: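 IL-6/STAT signaling read in ME-180 cells via an SIE beta-lactamase reporter. Stimulus was 40 pM IL-6 (its AC50) for 5 hrs, so both activation and inhibition register.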
# [10] = qHTS Assay for Identification of Small Molecule Agonists for Hypoxia Response Element Signaling Pathway (AID 914; active = well fitted activation curve with a large enough effect in the signal ratio, with a control signal flat, not every such curve was filed as active; inconclusive = small, poorly fitted or top-dose-only effect, or effect the other way, or a change in a side signal; the % refers to the signal ratio; also: potency is read from the fitted curve at half-maximal effect; as to activation: top concentration of the series differs between compounds; % of control where 0% means no effect); details: ME-180 (cervical carcinoma) HRE-bla reporter, beta-lactamase ratio, CoCl2, 17 h; activation: hits give high values
# Method in brief: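 HRE-bla ME-180 cells, overnight plating in Opti-MEM with 0.5% dialyzed FBS; cpd titration + EC50 CoCl2, 17 h, 37 degrees Celsius; CCF4 2.5 h RT; 460/530 nm ratio; AC50.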
# [11] = target: Mitogen-activated protein kinase 10 (Mus musculus) (UniProt Q61831); experiment: JNK3 AlphaScreen Assay (AID 530; active = well fitted curve in either direction with a large enough effect, not every such curve was filed as active; inconclusive = small, poorly fitted or top-dose-only effect, or another doubt;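 also: kinase came from lysate of stimulated human HepG2 cells; signal reports phosphorylation of biotinylated GST-cJun 1-79 at Ser73 with 10 µM ATP; potency is read from the fitted curve at half-maximal effect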); details: JNK3 lysate, c-Jun phosphorylation; activity change, negative = inhibition: at 57.1 µM (top of the series)
# Method in brief: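 Pre-activated (IL-1β/TNFα) JNK3 in HepG2 lysates phosphorylates biotin-GST-cJun(1-79), 10 uM ATP; anti-phospho-cJun(Ser73) AlphaScreen read at room temperature, pH 7.6 Tris buffer. Compounds pre-incubated 15 min as titrations.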
# [12] = target: Cytochrome P450 3A4 (Homo sapiens) (UniProt P08684); experiment: qHTS Assay for Inhibitors and Substrates of Cytochrome P450 3A4 (AID 884); details: recombinant CYP3A4, Luciferin-PPXE luminescence; activity change, negative = inhibition: at 57.1 µM (top of the series); also: potency is read from the fitted curve at half-maximal effect; nearly all actives have a fitted effect of over 50% in size
# Chain of UniProt P08684 (P08684 whole entry, looked up): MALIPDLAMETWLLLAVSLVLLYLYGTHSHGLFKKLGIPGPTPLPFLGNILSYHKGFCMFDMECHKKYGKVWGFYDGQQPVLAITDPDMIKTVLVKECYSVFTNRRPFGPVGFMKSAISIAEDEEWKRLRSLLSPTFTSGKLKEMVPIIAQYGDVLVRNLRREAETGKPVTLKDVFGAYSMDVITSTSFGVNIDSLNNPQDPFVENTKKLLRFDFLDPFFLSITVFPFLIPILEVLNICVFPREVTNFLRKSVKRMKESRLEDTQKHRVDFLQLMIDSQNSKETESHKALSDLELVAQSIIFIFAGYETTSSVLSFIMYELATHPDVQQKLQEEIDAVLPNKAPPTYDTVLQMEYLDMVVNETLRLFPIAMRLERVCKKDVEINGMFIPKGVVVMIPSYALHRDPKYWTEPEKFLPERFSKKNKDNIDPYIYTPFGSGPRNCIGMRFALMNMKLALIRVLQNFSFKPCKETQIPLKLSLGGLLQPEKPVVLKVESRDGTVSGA
# Method in brief: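 20 nM human CYP3A4 with 25 uM Luciferin-PPXE (at KM) in 200 mM KPO4, preincubated 10 min with compound; NADPH regeneration started a 60 min RT reaction. Luciferin detected by luminescence, normalized to 57 uM ketoconazole as full inhibition.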
# Tags tell the direction and shape of the fitted curve or compound fluorescence and quenching.
compound,measurement,setting,value
c1ccc(Nc2ncnc3ccc(-c4ccc5c(c4)OCO5)cc23)cc1,"activity change, negative = inhibition",[1],inconclusive: -118% [inhibitor]
same,"activity change, negative = inhibition",[2],inconclusive: 46% [activator]
same,Potency,[3],"inconclusive [rising, partial curve]"
same,Potency,[4],"inconclusive [inhibitor, single point]"
same,Potency,[5],inactive
same,Potency,[6],"inconclusive [inhibitor, partial curve, poor fit]"
same,Potency,[7],"inconclusive [inhibitor, single point]"
COc1ccc(-c2ccc(=N)n(CCCC(=O)O)n2)cc1,Potency,[8],inconclusive [decreasing]
same,Potency,[3],"inconclusive [inhibitor, single point]"
same,"activity change, negative = inhibition",[5],inconclusive: 1.55%
same,Potency,[6],inactive
same,Potency,[7],inactive
COc1cccc(Nc2ncc3nc(-c4cccs4)c(=O)n(C[C@H]4CCCO4)c3n2)c1,"activity change, negative = inhibition",[1],inconclusive: -46.1% [inhibitor]
same,Potency,[5],"inconclusive [inhibitor, single point]"
same,Potency,[6],"inconclusive [inhibitor, partial curve, poor fit]"
same,Potency,[7],"inconclusive [inhibitor, single point]"
Cc1cccc(CNc2ncnc3ccc(-c4ccc(C(=O)N(C)C)cc4)cc23)c1,"activity change, negative = inhibition",[1],inconclusive: -110% [inhibitor]
same,"activity change, negative = inhibition",[2],inactive: -8.36%
same,Potency,[3],inactive
same,Potency,[4],"inconclusive [inhibitor, single point]"
same,"activity change, negative = inhibition",[5],inconclusive: 6.14%
same,Potency,[6],"inconclusive [inhibitor, partial curve, poor fit]"
same,Potency,[7],"inconclusive [inhibitor, single point]"
CS(=O)(=O)Nc1cccc(-c2nc(N3CCNCC3)c3ccccc3n2)c1,Potency,[8],active: 20 µM
same,"activity change, negative = inhibition",[2],inconclusive: 32.1% [activator]
same,Potency,[3],inactive
same,Potency,[5],inactive
same,Potency,[6],inactive
same,Potency,[7],"inconclusive [inhibitor, single point]"
COc1ccc(C(=O)N2CCC3(CCN(Cc4ccncc4)CC3)CC2)cc1,"activity change, negative = inhibition",[1],inactive: -7.79%
same,Potency,[4],"inconclusive [inhibitor, partial curve]"
same,"activity change, negative = inhibition",[5],inconclusive: 4.24%
same,Potency,[7],inactive
Cc1cc(C)c(S(=O)(=O)Nc2cccc(C(F)(F)F)c2)c(C)c1,Potency,[8],inconclusive [decreasing]
same,Potency,[3],"inconclusive [activator, partial curve]"
same,Potency,[5],"inconclusive [activator, partial curve]"
same,Potency,[6],"inconclusive [inhibitor, partial curve]"
same,Potency,[7],inactive
CN(C)C(=O)c1ccc(-c2nc(NCc3cccnc3)c3ccccc3n2)cc1,"activity change, negative = inhibition",[1],inconclusive: -41.8% [inhibitor]
same,"activity, negative = inhibition",[9],inconclusive: -34.6% [inhibitor]
same,Potency,[3],inactive
same,Potency,[10],active: 3.16 µM
same,Potency,[5],inactive
same,Potency,[7],"inconclusive [inhibitor, single point]"
COCCNc1ncnc2ccc(-c3ccccc3C)cc12,"activity change, negative = inhibition",[1],inactive: -10.5%
same,"activity change, negative = inhibition",[2],inactive: 10.4%
same,Potency,[3],"inconclusive [activator, partial curve]"
same,Potency,[5],inactive
same,Potency,[7],inactive
CN1CCN(c2ncc3nc(-c4cn(C)c5ccccc45)c(=O)n(C[C@H]4CCCO4)c3n2)CC1,"activity change, negative = inhibition",[1],inactive: -8.04%
same,Potency,[11],"inconclusive [activator, partial curve]"
same,Potency,[3],inactive
same,"activity change, negative = inhibition",[5],inconclusive: 4.64%
same,Potency,[7],"inconclusive [inhibitor, single point]"
COc1ccccc1CNc1ncnc2ccc(-c3ccc(C(=O)N(C)C)cc3)cc12,"activity change, negative = inhibition",[1],inconclusive: -62.9% [inhibitor]
same,Potency,[3],"inconclusive [activator, single point]"
same,"activity change, negative = inhibition",[5],inconclusive: -1.35%
same,Potency,[7],"inconclusive [inhibitor, single point]"
O=c1c(CCc2ccccc2)nc2cnc(Oc3ccccc3)nc2n1C[C@H]1CCCO1,"activity change, negative = inhibition",[1],inconclusive: -31.9% [inhibitor]
same,Potency,[11],"inconclusive [activator, partial curve]"
same,Potency,[12],"inconclusive [inhibitor, full curve]"
same,activation,[10],inactive: -12.6%
same,"activity change, negative = inhibition",[5],inconclusive: -14.2%
same,Potency,[7],"inconclusive [inhibitor, single point]"
